Measured values: PubChem BioAssay AID624170 (National Center for Advancing Translational Sciences (NCATS), 2012)
Out of some 410,000 compounds screened, about 850 (0.21%) were called active. This list was built around the results that the source calls inconclusive (neither active nor inactive); the mix of calls is not that of the screen. Calls follow the shape of the dose curve; as a rule, active = well fitted inhibition curve with a large enough effect; inconclusive = small, poorly fitted or top-dose-only effect, or another doubt; inactive = no such curve, though single readings can be large or run the other way. Potencies of inconclusive entries are left out as doubtful fits.
% is scaled to controls: 0 for no effect and ±100 for the full control effect; potency is read from the fitted curve at half-maximal effect; tags tell the direction and shape of the fitted curve.

Each compound was assayed against Glutaminase kidney isoform, mitochondrial (Homo sapiens) (UniProt O94925) (assay: qHTS for Inhibitors of Glutaminase (GLS)). Conditions: GLS enzymatic activity, qHTS titration; series mostly up to 45.5 µM; activity change, negative = inhibition: at the top concentration.
Chain of UniProt O94925 (O94925 whole entry, looked up, canonical isoform): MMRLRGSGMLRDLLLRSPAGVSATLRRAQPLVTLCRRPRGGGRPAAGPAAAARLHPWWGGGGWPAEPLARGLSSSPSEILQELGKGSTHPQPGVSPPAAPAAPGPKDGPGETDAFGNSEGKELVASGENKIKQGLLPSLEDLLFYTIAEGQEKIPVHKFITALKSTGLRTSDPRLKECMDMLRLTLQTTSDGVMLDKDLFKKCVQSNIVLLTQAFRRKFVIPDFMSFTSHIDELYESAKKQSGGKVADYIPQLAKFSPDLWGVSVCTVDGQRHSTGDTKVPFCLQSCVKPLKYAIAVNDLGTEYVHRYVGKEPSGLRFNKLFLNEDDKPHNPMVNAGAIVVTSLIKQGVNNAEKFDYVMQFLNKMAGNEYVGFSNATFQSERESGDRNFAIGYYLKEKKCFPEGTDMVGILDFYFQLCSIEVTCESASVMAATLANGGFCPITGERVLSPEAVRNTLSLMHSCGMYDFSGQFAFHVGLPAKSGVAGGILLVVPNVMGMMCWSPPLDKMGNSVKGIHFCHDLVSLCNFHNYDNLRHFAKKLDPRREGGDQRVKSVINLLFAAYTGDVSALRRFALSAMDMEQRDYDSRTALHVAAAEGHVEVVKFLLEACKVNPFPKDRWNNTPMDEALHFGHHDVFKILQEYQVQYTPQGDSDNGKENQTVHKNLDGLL
Summary of the method: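 Human kidney-isoform GLS in 45 mM KH2PO4 pH 8.2, 0.02% Tween-20, with compound, started with 1mM L-Glutamine (added stock). Glutamate oxidase/HRP/Amplex red coupled fluorescence read at start and after 30 min at RT.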
For `O=[N+]([O-])c1ccc2c(c1)-c1ccccc1C2O` (stereo unspecified), the Potency was inconclusive [inhibitor, single point]. In the case of `CC(C)(O)C#Cc1ccc(CN2CCC(CO)(CCc3ccccc3)CC2)cc1`, the Potency is reported as inconclusive [inhibitor, single point]. With `CC1=NN(C(=O)COc2cc(C)ccc2C(C)C)C(O)(c2ccccc2)C1` (stereo unspecified) the Potency was inconclusive [inhibitor, single point]. In the case of `Cc1ccccc1Cn1c(=O)sc2ccccc2c1=O`, the Potency is reported as inconclusive [inhibitor, partial curve]. With `COc1ccc(OC)c(NC(=O)COC(=O)c2cc3c(s2)CCC3)c1` the Potency was inconclusive [inhibitor, single point]. In the case of `CCc1ccc2nc3c(c(C(=O)O)c2c1)CCC3`, the Potency is reported as inconclusive [inhibitor, single point]. With `O=C(NNC(=S)Nc1ccccc1)NNC(=S)Nc1ccccc1` the “activity change, negative = inhibition” value was inactive: 24.7%. `Cc1ccc(S(=O)(=O)n2nc(OC(=O)c3c(-c4ccccc4Cl)noc3C)cc2N)cc1` was tested, and the Potency was inconclusive [inhibitor, single point]. For `Cc1ccc(S(=O)(=O)N2CC(O)C[C@H]2C(=O)OCC(=O)c2ccccc2)cc1` (stereo partly specified), the “activity change, negative = inhibition” value was inactive: -0.334%. `Cc1ccc(NC(=O)CNC(=O)CC23CC4CC(CC(C4)C2)C3)c(O)c1` was tested, and the Potency was inconclusive [inhibitor, partial curve, poor fit]. For `CCC(=O)Nc1cccc(-c2nc3ccccc3o2)c1`, the “activity change, negative = inhibition” value was inactive: 5.88%. For `CCNC(=O)CN1C(=O)NC2(CCOc3ccccc32)C1=O` (stereo unspecified), the Potency was inconclusive [inhibitor, single point]. In the case of `Cc1ccccc1OCC(=O)NCCNC(=O)c1ccncc1`, the Potency is reported as inconclusive [inhibitor, full curve]. `Cc1ccc(SCc2cc(=O)n3[nH]c(C)nc3n2)cc1` was tested, and the Potency was inconclusive [inhibitor, single point]. In the case of `CC(C)(S)C(=O)NC(CS)C(=O)O` (stereo unspecified), the “activity change, negative = inhibition” value is reported as inactive: -1.08%. In the case of `O=C(Nc1ccc(Nc2ccccc2)cc1)c1c(F)c(F)c(F)c(F)c1F`, the Potency is reported as inconclusive [inhibitor, partial curve, poor fit]. In the case of `Cc1ccc(S(=O)(=O)N2C[C@@]3(O)Cn4c(=O)ccc(=O)n4C[C@@]3(OC(=O)NCC3CCCCC3)C2)cc1`, the Potency is reported as inconclusive [inhibitor, full curve, poor fit]. In the case of `O=C(Cn1cc[n+](CC(=O)c2ccccc2)c1)c1ccccc1`, the “activity change, negative = inhibition” value is reported as inactive: 2.94%. `Cc1oc(C(=O)O)cc1CSCc1cc(C(=O)O)c(C)o1` was tested, and the Potency was inconclusive [inhibitor, single point]. For `CC1C/C(=C/c2cccs2)C(=O)/C(=C/c2cccs2)C1` (stereo unspecified), the Potency was inconclusive [inhibitor, single point]. For `CCc1ccccc1NC(=O)[C@@H](c1ccccc1)N1Cc2ccccc2C1=O`, the “activity change, negative = inhibition” value was inactive: 0.267%. In the case of `Nc1nnnn1-c1ccccc1`, the “activity change, negative = inhibition” value is reported as inactive: -3.55%. In the case of `Cc1ccc(C2=NN=C(NC(=O)CSc3nncn3C)SC2)cc1`, the Potency is reported as inconclusive [inhibitor, single point]. `CC(NCCS(=O)(=O)c1ccc(Cl)cc1)c1cccc(Cl)c1` (stereo unspecified) was tested, and the “activity change, negative = inhibition” value was inactive: -2.12%. In the case of `Cc1oc2c(c1C(=O)Nc1cccc3ccccc13)CCCC2`, the Potency is reported as inconclusive [inhibitor, single point]. For `COC(=O)c1cc(Cl)ccc1NC(=O)CSc1ncc(S(=O)(=O)c2ccc(Br)cc2)c(=O)[nH]1`, the Potency was inconclusive [inhibitor, single point]. In the case of `COc1ccc(S(=O)(=O)/N=C2\C=C(Nc3ccc(O)cc3)C(=O)c3ccccc32)cc1`, the Potency is reported as active: 8.91 µM. For `Cc1cc2nc(-c3ccc(SCc4ccccn4)nc3)[nH]c2cc1C`, the Potency was inconclusive [inhibitor, single point]. For `CCOC(=O)c1nc(NNC(C)=O)sc1C`, the Potency was inconclusive [inhibitor, partial curve]. For `Cc1cc(Br)ccc1NC(=O)CCCOc1cc(=O)n(C)c2ccccc12`, the Potency was inconclusive [inhibitor, single point]. With `CCn1c(C)c(C)c2cc(C(=O)N3CCCC3)ccc21` the “activity change, negative = inhibition” value was inactive: -6%. For `CC(C)N1CCC1(C)C(=O)Nc1nc2ccccc2[nH]1` (stereo unspecified), the “activity change, negative = inhibition” value was inactive: 20.8%. For `Cc1cc(=O)[nH]c(SCC(=O)N2CCCC(C)C2)n1` (stereo unspecified), the Potency was inconclusive [inhibitor, single point]. In the case of `Clc1ccc2oc(-c3ccccc3)nc2c1`, the “activity change, negative = inhibition” value is reported as inactive: 4.02%. `Cc1ccc(-c2csc(NC(=O)CCNC(=O)c3ccc(Cl)cc3)n2)cc1` was tested, and the Potency was inconclusive [inhibitor, single point]. With `Cc1cc(O)ccc1N/C=C/c1onc(C)c1[N+](=O)[O-]` the Potency was inconclusive [inhibitor, partial curve, poor fit]. For `COc1cccc(NC(=O)c2cc3c(-c4ccc(Cl)cc4)nn(C)c3s2)c1`, the “activity change, negative = inhibition” value was inactive: -7.1%. With `Cc1ccc(S(=O)(=O)NNC(=O)c2cc(C)cs2)cc1` the Potency was inconclusive [inhibitor, partial curve]. In the case of `O=C1COc2ccc(C(=O)COC(=O)c3ccc([N+](=O)[O-])cc3Cl)cc2N1`, the “activity change, negative = inhibition” value is reported as inactive: 0.355%. In the case of `CN1C(=S)SC(C)(C)C1N(O)C(=O)Nc1ccc(Cl)cc1` (stereo unspecified), the Potency is reported as inconclusive [inhibitor, single point]. In the case of `CCCn1cc(S(=O)(=O)c2ccc(Cl)cc2)c(=O)c2cc(OC)ccc21`, the Potency is reported as inconclusive [inhibitor, single point]. For `O=C(Nc1ccc(Nc2ccccc2)cc1)C(Cl)Cl`, the Potency was inconclusive [inhibitor, partial curve]. `O=C1C(Cl)=C(NCC2CCCO2)C(=O)N1C1CCCCC1` (stereo unspecified) was tested, and the “activity change, negative = inhibition” value was inactive: 6.11%. With `Cc1c(C(=O)OCC(=O)N2CC(=O)Nc3ccccc32)oc2ccccc12` the Potency was inconclusive [inhibitor, single point]. For `NS(=O)(=O)c1ccc(NC(=O)c2cccc(N3C(=O)c4ccccc4C3=O)c2)cc1`, the Potency was inconclusive [inhibitor, single point]. For `CS(=O)(=O)/C(C#N)=C/c1cccn1S(=O)(=O)c1cccc2ccccc12`, the “activity change, negative = inhibition” value was inactive: 4.91%.
